According to the antibiotic and cytotoxicity screens of Wong et al. (2023):
This is one part of the list.

System: S. aureus RN4220
Experiment: growth inhibition call (relative growth <= 0.2)
Settings: 50 µM

Growth inhibition call, inactive:
CC(C)NC(=O)N(C)C[C@@H]1Oc2c(NS(=O)(=O)c3cn(C)cn3)cccc2C(=O)N([C@@H](C)CO)C[C@H]1C
CC(=O)OC(CC(=O)O)[N+](C)(C)C.[Cl-] (stereo not drawn)
C[C@@H]1CN([C@@H](C)CO)C(=O)c2cc(NC(=O)Nc3ccc(C(F)(F)F)cc3)ccc2O[C@@H](C)CCCCO[C@@H]1CN(C)Cc1ccc(C(=O)O)cc1
CC(C)(C[C@H]1CN(S(=O)(=O)c2cccc(C(F)(F)F)c2)c2cc(-c3cc(F)cc(OC(F)F)c3)ccc2O1)C(=O)O
CCS(=O)(=O)N1CC[C@@H]2CO[C@H](CN3CCN(C)CC3)[C@@H]2C1
CN1CCN(C(=O)C[C@H]2C=C[C@H](NS(=O)(=O)c3cccc(F)c3)[C@H](CO)O2)CC1
C[C@@H]1CN([C@H](C)CO)C(=O)c2cc(N(C)C)ccc2O[C@@H](C)CCCCO[C@@H]1CN(C)S(=O)(=O)c1cn(C)cn1
C[C@@H]1CCCn2cc(nn2)COCCNC1=O
C[C@H](CO)N1C[C@H](C)[C@H](CN(C)S(C)(=O)=O)Oc2c(NS(=O)(=O)c3cccs3)cccc2C1=O
C[C@@H]1CN([C@H](C)CO)C(=O)c2cccc(NC(=O)c3cnccn3)c2O[C@H]1CN(C)Cc1ccccc1
C[C@@H]1CCCCO[C@H](CN(C)Cc2ccc(C(=O)O)cc2)[C@H](C)CN([C@@H](C)CO)C(=O)c2cc(NC(=O)Nc3ccc(C(F)(F)F)cc3)ccc2O1
Cc1noc(C)c1NC(=O)N(C)C[C@H]1Oc2ccc(NS(=O)(=O)c3cccs3)cc2CC(=O)N([C@@H](C)CO)C[C@@H]1C
C[C@H]1CCCCO[C@H](CN(C)S(=O)(=O)c2ccc(Cl)cc2)[C@@H](C)CN([C@@H](C)CO)C(=O)c2cc(NC(=O)c3ccncc3)ccc2O1
C[C@H](CO)N1C[C@H](C)[C@H](CN(C)Cc2ccc(C(=O)O)cc2)Oc2ccc(NS(C)(=O)=O)cc2CC1=O
CN1C(=O)c2cc(NC(=O)C3CCOCC3)ccc2OC[C@@H]2O[C@H](CC(=O)NCc3ccccc3F)CC[C@@H]21
C[C@H](CO)N1C[C@H](C)[C@@H](CN(C)C(=O)c2ccc3c(c2)OCO3)Oc2ncc(C3=CCCC3)cc2C1=O
CCC(=O)Nc1ccc2c(c1)OC[C@H](C)N(C(=O)CN1CCOCC1)C[C@@H](C)[C@@H](OC)CN(C)C2=O
CN1CCN(C(=O)C[C@@H]2CC[C@H]3[C@@H](COc4ccc(NC(=O)c5cscn5)cc4C(=O)N3C)O2)CC1
C[C@@H]1CN([C@@H](C)CO)C(=O)c2cc(NC(=O)Nc3ccc(C(F)(F)F)cc3)ccc2O[C@@H](C)CCCCO[C@H]1CN(C)Cc1ccc(Cl)c(Cl)c1
C[C@@H]1CN([C@H](C)CO)C(=O)c2cc(NC(=O)C3CCCCC3)ccc2O[C@@H]1CN(C)Cc1ccc(-c2ccccc2)cc1
N=C(N)NCCC[C@H](N)C(=O)NCC(=O)N[C@@H](CC(=O)O)C(=O)N[C@@H](CO)C(=O)O
Cc1ccc(S(=O)(=O)Nc2ccc3c(c2)C(=O)N([C@@H](C)CO)C[C@@H](C)[C@@H](CN(C)C(=O)Nc2ccc(C(F)(F)F)cc2)O3)cc1
C[C@@H]1CCCCO[C@@H](CN(C)Cc2ccc(C(F)(F)F)cc2)[C@H](C)CN([C@H](C)CO)C(=O)c2cc(NS(C)(=O)=O)ccc2O1
